From PubChem BioAssay AID686979 (National Center for Advancing Translational Sciences (NCATS), 2013)
Among all 420,000 compounds or so, about 50,000 (12%) were called active. The shares of active, inactive and inconclusive entries below differ from those in the screen. The call rests on the fitted dose curve; in most records, active means well fitted inhibition curve with a large enough effect; inconclusive means small, poorly fitted or top-dose-only effect; inactive means flat fitted curve, though single readings scatter. Potencies of inconclusive entries are left out as doubtful fits.

Assay: qHTS for Inhibitors of human tyrosyl-DNA phosphodiesterase 1 (TDP1): qHTS in cells in presence of CPT; further: nearly all actives have a fitted effect of over 55% in size
Settings: chicken DT40 Tdp1-/-;hTDP1 cells + 20 nM CPT, ATP luminescence, 48 h; activity change, negative = growth inhibition: at 46.2 µM (top of the series)
In short: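 Cell growth measured by CellTiter-Glo luminescence after a minimum 48 h, 37 C compound exposure with 20 nM CPT in Tdp1-knockout DT40 cells stably expressing hTDP1, seeded 400/well; qHTS titration format.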
On the % scale 0 is the no-effect control and ±100 the full control effect; potency means the concentration at half of the fitted maximal effect; tags describe the fitted curve by direction and shape.

SMILES	Potency	activity change, negative = growth inhibition
NC(Cc1ccccc1)c1csc(NC(=O)c2cccc(OC(F)(F)F)c2)n1 (stereo not drawn)	active: 7.31 µM	
O=C(NCC(c1cccs1)S(=O)(=O)c1cccs1)c1ccc(Cl)cc1 (stereo not drawn)	inconclusive [inhibitor, single point]	
Cc1cc(NC(=O)CCC(=O)N(c2ccccc2)C2(C(=O)NC3CCCCC3)CCCC2)no1		inactive: -21.9%
CS(=O)(=O)c1cccc(-c2nnc(NC(=O)c3ccc(S(=O)(=O)N4CCCC4)cc3)o2)c1		inactive: -1.39%
Cc1ccc(-n2c(SCC(=O)NCc3ccccc3)nc3n[nH]c(C)c3c2=N)cc1Cl	active: 4.11 µM	
CN(C)S(=O)(=O)n1cc(/C=C(\NC(=O)c2ccccc2F)C(=O)N2CCCC2)c2ccccc21	inconclusive [inhibitor, partial curve, poor fit]	
Cc1ccc(S(=O)(=O)N2CCOC2CNC(=O)C(=O)NCc2ccc(Cl)cc2)cc1 (stereo not drawn)	inconclusive [inhibitor, partial curve]	
CCOC(=O)c1cc(C#N)c(N2CCN(C(=O)c3cccc(C(F)(F)F)c3)CC2)nc1C(F)(F)F	inconclusive [inhibitor, single point]	
O=C(NC(=S)Nc1cc(Cl)ccc1N1CCOCC1)c1ccc(-c2cccc(Cl)c2)o1		inactive: 1.33%
O=C(NC1CC1)C1=C[C@H](c2ccc3c(c2)OCO3)C[C@H](OCc2ccc(CO)cc2)O1	inconclusive [inhibitor, single point]	
Cc1ccc(-c2nc3nc(C)cc(C)n3c2Nc2ccc3c(c2)OCCO3)cc1	inconclusive [inhibitor, partial curve, poor fit]	
Cn1cc(-c2nc3cnc(N4CCNCC4)nc3n(Cc3ccc(F)cc3)c2=O)c2ccccc21	active: 5.17 µM	
Cc1noc(C)c1S(=O)(=O)Nc1ccc(C#N)cc1		inactive: -3.02%
Cc1noc(C)c1C(=O)Nc1ccc(S(=O)(=O)N2CCC(C)CC2)cc1	inconclusive [inhibitor, single point]	
Cc1c(C(=O)Nc2cccc(Cl)c2)c2ccccn2c1CCc1ccncc1	inconclusive [inhibitor, partial curve]	
Cc1cc(C)c(S(=O)(=O)NCC(=O)NCc2cc(=O)n(C)c(=O)n2C)c(C)c1		inactive: -1.23%
CCCOC(=O)CSC1=C(C#N)C(c2ccc3c(c2)OCO3)CC(=O)N1 (stereo not drawn)	active: 18.4 µM	
Cc1ccccc1-c1nc(CS(=O)(=O)CC(=O)Nc2cc(F)ccc2F)c(C)o1	inconclusive [inhibitor, single point]	
CCOc1ccc2c(c1)C(=NNC(=O)c1ccccn1)c1cc(OCC)ccc1-2		inconclusive: -30.1% [inhibitor]
COCCn1c(SCc2ccc(C(=O)OC)o2)nc2ccccc2c1=O	inconclusive [inhibitor, partial curve]	
O=C(O)C#Cc1cccc2ccccc12		inactive: 10.9%
Cc1ccccc1OCCN1C(=O)C(=O)c2cccc(C)c21	active: 1.3 µM	
COCC(C)n1c(C)cc(C(=O)CN2C(=O)NC3(CCCCC3C)C2=O)c1C (stereo not drawn)	inconclusive [inhibitor, single point]	
CCOC(=O)N1CCN(C(=O)C2CCN(S(=O)(=O)c3cc(Cl)ccc3Cl)CC2)CC1	inconclusive [inhibitor, single point]	
CN(C)c1ccc(C=c2c3ccccc3n3c2cc(-c2ccccc2)[n+]3C)cc1	active: 0.58 µM	

SMILES	Potency	activity change, negative = growth inhibition
CN(C(=O)c1cccc(COc2ccc(Cl)cc2Cl)c1)c1ccccc1	active: 20.6 µM	
CCCCCC1=CCC/C1=N\NC(=O)c1ccc2c(c1)OCO2		inactive: 3.52%
O=C(NCc1ccc(F)cc1)N1CCN(C(=O)c2ccccc2)CC1		inactive: -10.5%
O=S(=O)(Nc1ccc(F)cc1)c1ccc(NS(=O)(=O)c2cccs2)cc1		inactive: -5.65%
CN(C)C(=S)SCC(=O)NC(=O)NC(C)(C)C		inactive: -12.5%
O=C(CNC(=O)c1ccncc1)N/N=C/c1cc(Br)ccc1O		inactive: -28.5%
CCn1c(COc2ccc(C)cc2)nc2ccccc21	inconclusive [inhibitor, single point]	
CNC(=O)NC(=O)COC(=O)c1ccc(-n2c(C)ccc2C)cc1	inconclusive [inhibitor, partial curve]	
O=C1CNC(=S)N1CCCn1ccnc1		inactive: 3.78%
CCc1ccc(OCC(=O)N/N=C/c2cc([N+](=O)[O-])ccc2N2CCCCCC2)cc1	inconclusive [inhibitor, single point]	
COC(=O)C1=CN(c2ccc(C)cc2)C(N)=C(C#N)C1c1ccccc1F (stereo not drawn)	inconclusive [inhibitor, single point]	
Fc1cccc(-c2cc3nc4c(c(N5CCOCC5)n3n2)CCCC4)c1	active: 18.4 µM	
CN(C)Cc1ccccc1-c1nc(NCc2cccs2)c2ccccc2n1	active: 20.6 µM	
CC(=O)OC1CC[C@@]2(C)C(CC[C@@]3(C)C2CC=C2C4CC(C)(C)CC[C@]4(C)CC[C@@]23C)C1(C)C (stereo partly drawn)		inactive: 8.65%
Cc1ccc(Cn2ccn(CC(=O)Nc3c(C)cc(C)cc3C)c(=O)c2=O)cc1		inactive: 1.78%
N#CN=c1snc(-c2ccccc2)n1-c1ccc(Br)cc1	inconclusive [inhibitor, single point]	
CCC(=O)CN(Cc1cc(OC)ccc1OC)S(=O)(=O)c1ccccc1Br	inconclusive [inhibitor, single point]	
Cc1ccc(-c2noc(-c3ccccc3F)n2)cc1		inactive: 7.27%
O=S(=O)(c1ccccc1)N1N=C(c2ccc(Cl)cc2)CC1c1ccco1 (stereo not drawn)	inconclusive [inhibitor, single point]	
COc1ccc(Cc2nc3ccccc3n2CC(=O)N/N=C/c2ccc(O)cc2)cc1OC		inactive: -2.54%
COc1ccc(NC(=O)Cn2c(=O)oc3cc(S(=O)(=O)NCc4ccccc4)ccc32)c(OC)c1	active: 8.2 µM	
COc1ccc(C2C(C#N)=C(N)Oc3cc(O)ccc32)cc1OC (stereo not drawn)	inconclusive [inhibitor, single point]	
Cc1noc(-c2ccc(N3CCC(C)CC3)c([N+](=O)[O-])c2)n1	inconclusive [inhibitor, single point]	
CCCCN(C)CCCNC(=O)Cn1ncc2c3ccccc3n(Cc3ccccc3F)c2c1=O	active: 13 µM	
CSc1ccc(COC(=O)c2cc([N+](=O)[O-])ccc2N2CCOCC2)cc1	active: 0.0411 µM	

SMILES	Potency	activity change, negative = growth inhibition
Cc1cc(C(=O)CCl)c(C)n1CC1COc2ccccc2O1 (stereo not drawn)	active: 2.06 µM	
N#Cc1ccc(OCC(O)CN2CCC(C(O)(c3ccccc3)c3ccccc3)CC2)cc1 (stereo not drawn)	active: 20.6 µM	
COc1cc(NC(=O)C2CCN(S(=O)(=O)c3ccc4c(c3)oc(=O)n4C)CC2)cc(OC)c1	inconclusive [inhibitor, single point]	
O=C(CSC1=Nc2ccccc2C2=NC(Cc3ccccc3)C(=O)N12)Nc1ccccc1C(F)(F)F (stereo not drawn)	inconclusive [inhibitor, single point]	
Cc1c(CNC(=O)c2cnn3c2NC(c2ccccc2)CC3C(F)(F)F)cnn1C (stereo not drawn)		inactive: -20.1%
CC(C)N1CCC(N2CCN(C3CCCCCC3)CC2CCO)CC1 (stereo not drawn)	inconclusive [inhibitor, partial curve]	
CCN1CCN(C2=C(Cl)C(=O)N(Cc3ccccc3)C2=O)CC1	active: 23.1 µM	
CCCc1nc2ccc(Br)cn2c1Cc1ccccc1OC	active: 1.46 µM	
CSCCNC(=O)C1(C)CCN1C(=O)c1ccc(C(C)(C)C)cc1 (stereo not drawn)	active: 18.4 µM	
CCCCC(C(=O)O)C(C)CC(=O)Nc1nncs1 (stereo not drawn)	inconclusive [inhibitor, single point]	
COc1ccc(NS(=O)(=O)c2cc3c(cc2C)NC(=O)CO3)c(OC)c1	inconclusive [inhibitor, single point]	
O=C(c1cc2ccccc2o1)N1CCN(c2cccc(C(F)(F)F)c2)CC1		inactive: 1.06%
COc1cccc(CNC(=O)CCS(=O)(=O)c2ccc3c(c2)NC(=O)C(C)S3)c1 (stereo not drawn)		inconclusive: -33.4% [inhibitor]
CCOC(=O)c1sc(=S)n(C)c1NC(=O)c1cccc(Br)c1	active: 20.6 µM	
COc1ccccc1NC(=O)c1csc(-n2nc(C)cc2C(F)(F)F)n1	inconclusive [inhibitor, partial curve]	
CCCC(=O)N1CCC1(C)C(=O)Nc1ccc2nccnc2c1 (stereo not drawn)	inconclusive [inhibitor, single point]	
Cc1cccc(CNC(=O)c2oc3c(c2C)-c2nn(Cc4cccc(Cl)c4)cc2CC3)c1	inconclusive [inhibitor, single point]	
CC(CCc1ccccc1)NC(=O)COC(=O)c1cccc(N(C)C)c1 (stereo not drawn)	inconclusive [inhibitor, single point]	
O=C(c1ccco1)c1cn[nH]c1-c1ccc(Cl)cc1O	inconclusive [inhibitor, partial curve]	
COc1cc(OC)cc(C(=O)OCC(=O)Nc2cccc(S(=O)(=O)NC3=NCCCCC3)c2)c1	inconclusive [inhibitor, single point]	
CC1(C(=O)Nc2cccc(Oc3ccccc3)c2)CCN1C1Cc2ccccc2C1 (stereo not drawn)	inconclusive [inhibitor, single point]	
Cc1ccc(-c2nc3ccccn3c2Nc2ccc(F)cc2)o1	inconclusive [inhibitor, single point]	
CC(C)(C)OC(=O)N1CCC(c2c(C(=O)NC3CC3)cnn2-c2ccc(Cl)cc2)CC1	inconclusive [inhibitor, single point]	
